Hit rate of the full screen: of about 200,000 compounds, about 4,500 (2.2%) were called active. Inconclusive means that the source gave no clear call. Such entries were picked first, then a sample of the others. Calls follow the shape of the dose curve; as a rule, active = well fitted inhibition curve with a large enough effect; inconclusive = small, poorly fitted or top-dose-only effect, or effect the other way; inactive = flat fitted curve, though single readings scatter. Potencies of inconclusive entries are doubtful fits and often do not repeat.
These molecules were tested against Cruzipain (Trypanosoma cruzi) (UniProt P25779) (assay: qHTS Assay for Promiscuous and Specific Inhibitors of Cruzain (without detergent)). Conditions: purified cruzain, Z-FR-AMC fluorescence, no detergent.
Sequence of UniProt P25779 (P25779 whole entry, looked up): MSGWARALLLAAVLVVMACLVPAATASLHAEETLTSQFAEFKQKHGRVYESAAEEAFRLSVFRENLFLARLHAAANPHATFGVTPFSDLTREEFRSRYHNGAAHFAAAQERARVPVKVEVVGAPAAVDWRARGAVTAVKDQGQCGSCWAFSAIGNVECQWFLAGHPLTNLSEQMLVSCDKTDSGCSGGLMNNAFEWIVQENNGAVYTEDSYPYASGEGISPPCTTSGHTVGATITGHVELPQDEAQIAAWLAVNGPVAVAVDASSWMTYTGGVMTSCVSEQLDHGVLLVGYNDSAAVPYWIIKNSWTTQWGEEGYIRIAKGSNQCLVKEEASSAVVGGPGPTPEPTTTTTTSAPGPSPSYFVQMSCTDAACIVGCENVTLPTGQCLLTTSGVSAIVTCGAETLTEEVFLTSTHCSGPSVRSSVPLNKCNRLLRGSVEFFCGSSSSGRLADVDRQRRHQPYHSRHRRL
Method in brief: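 Purified cruzain at 1.5 nM, pre-incubated 15 min with compound at room temperature in 100 mM sodium acetate pH 5.5, 5 mM DTT, 0.00005% Triton X-100. Reaction started with 2 uM Z-FR-AMC; AMC fluorescence increase over 60 s gives rate.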
Also: nearly all actives have a fitted effect of over 40% in size.
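For max response, negative = inhibition in this document: plate controls were enzyme without inhibitor for no effect and buffer without enzyme for full effect.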
Potency is read from the fitted curve at half-maximal effect; tags tell the direction and shape of the fitted curve.

SMILES | Potency | max response, negative = inhibition
N/C(=N\OC(=O)c1ccc(Cl)cc1Cl)c1ccc(Cl)cc1 | inconclusive: 31.6 µM [inhibitor, single point] | 
CCOC(=O)c1c(-c2ccccc2)oc2ccc(NS(=O)(=O)c3ccc(C)cc3)cc12 | inconclusive: 39.8 µM [inhibitor, single point] | 
COc1cccc(C2C(C(N)=O)=C(C)Nc3nc(-c4cccc(Cl)c4)nn32)c1 (configuration not stated) |  | inactive: -7.7%
CCN(CC)S(=O)(=O)c1ccc(-c2nnc(SCC(=O)N3c4ccccc4CC3C)o2)cc1 (configuration not stated) | inconclusive: 7.94 µM [activator, partial curve, poor fit] | 
CCOC(=O)C1=C(c2ccccc2)NC(=S)NC1c1ccc(Cl)c([N+](=O)[O-])c1 (configuration not stated) | inconclusive: 15.8 µM [inhibitor, partial curve, poor fit] | 
Cc1cccc(-n2c(C)cc(/C=N/NC(N)=S)c2C)c1 |  | inactive: -26.1%
CSc1nc(NCc2ccccc2)c2c3c(sc2n1)CN(C)CC3 |  | inactive: -20.9%
O=C(Nc1cc(F)ccc1F)C1CCN(C(=O)c2cnn(-c3ccccc3)c2-n2cccc2)CC1 | inconclusive: 31.6 µM [activator, single point] | 
COc1ccc(-c2noc(-c3nnn(-c4ccc(C)cc4C)c3C)n2)cc1 |  | inactive: -3.62%
CCC(C)n1c(SCc2ccc(F)cc2Cl)nc2ccsc2c1=O (configuration not stated) |  | inactive: 22.5%
CC(=O)c1c(C)oc2ccc(N(C(=O)C3CCCCC3)S(=O)(=O)c3cc([N+](=O)[O-])ccc3C)cc12 | inconclusive: 25.1 µM [inhibitor, single point] | 
CSc1ccc(CCNC(=O)c2c(C)nn(-c3ccc(F)cc3)c2-n2cccc2)cc1 | inconclusive: 39.8 µM [activator, single point] | 
CCC1(C)Cc2nc3[nH]c(=S)n(-c4ccccc4)c(=O)c3cc2CO1 (configuration not stated) | inconclusive: 39.8 µM [inhibitor, single point] | 
COc1ccc(/C=N/NC(=O)c2ccc(Br)o2)cc1Cn1cc([N+](=O)[O-])cn1 | inconclusive: 39.8 µM [inhibitor, single point] | 
Cc1cccn2c(=O)cc(CSc3nnc(NC(=O)C(C)C)s3)nc12 |  | inactive: 0.738%
COc1ccc(C2C(C(=O)OC3CCCCC3)=C(C)Nc3nnnn32)c(OC)c1OC (configuration not stated) | inconclusive: 39.8 µM [activator, single point] | 
O=C(Nc1cccc(F)c1)c1ccc(S(=O)(=O)N2CCCC2)cc1 |  | inactive: 6.1%
CC(=O)Nc1sc(C)c(C)c1C(=O)OCC(=O)N(CC(C)C)C1CCS(=O)(=O)C1 (configuration not stated) | inconclusive: 39.8 µM [activator, single point] | 
O=C1C2C3c4ccccc4C(c4ccccc43)C2C(=O)N1c1cccc2cccnc12 (configuration not stated) | inconclusive: 39.8 µM [activator, single point] | 
CCN(CC)C(=O)Cn1cc(SCC(=O)Nc2cc(OC)ccc2OC)c2ccccc21 | inconclusive: 25.1 µM [activator, single point] | 
CCNC(=O)NC(=O)C(C)OC(=O)c1cc(S(=O)(=O)N2CCCCCC2)ccc1OC (configuration not stated) | inconclusive: 25.1 µM [activator, single point] | 

SMILES | Potency | max response, negative = inhibition
Cc1ccc(NC(=O)CN(C)C(=O)COc2ccc(C(=O)c3ccc(F)cc3)cc2)cc1 | inconclusive: 25.1 µM [activator, single point] | 
O=C(CSc1nnnn1-c1ccc(Cl)cc1)NC(=O)Nc1ccc2c(c1)OCCO2 | active: 25.1 µM | 
Cc1ccc(/C=C2\SC(=S)N(CCCC(=O)Nc3nccs3)C2=O)cc1 | inconclusive: 39.8 µM [inhibitor, single point] | 
CCOC(=O)C1CCN(C(=O)CN(c2ccc(Cl)c(C(F)(F)F)c2)S(C)(=O)=O)CC1 | inconclusive: 31.6 µM [activator, single point] | 
COc1cc(CCN2C(=O)c3cccc4cccc(c34)C2=O)c(S(=O)(=O)NCCO)cc1OC | inconclusive: 39.8 µM [activator, single point] | 
COc1ccc2c(c1)C1=NN(/C(C)=C/C(C)=O)C(c3ccc(F)cc3)C1CC2 (configuration not stated) |  | inactive: -1.46%
Cc1ccccc1N/N=C/c1ccc(C#N)cc1 | inconclusive: 25.1 µM [inhibitor, single point] | 
Cc1cccc(NS(=O)(=O)c2ccc3c(c2)n(C)c(=O)n3C)c1C |  | inactive: -3.29%
O=C(c1ccco1)N1CCN(C(=O)c2cccs2)CC1 |  | inactive: -7.2%
Cc1ccccc1CNC(=O)CN1CCSc2ccccc21 |  | inactive: 7.92%
O=C(CCN1C(=O)/C(=C\c2ccccc2Cl)SC1=S)N1CCN(c2ccccc2)CC1 | active: 15.8 µM | 
N#CC(C(=O)NCc1ccco1)c1nc2ccccc2nc1N1CCOCC1 (configuration not stated) | inconclusive: 39.8 µM [activator, single point] | 
CSc1ccc(C2C(C#N)=C(N)N(c3ccccc3)C3=C2C(=O)CCC3)cc1 (configuration not stated) | active: 15.8 µM | 
COc1ccccc1N1CCN(S(=O)(=O)c2ccc3c(c2)CCCN3C(C)=O)CC1 | inconclusive: 39.8 µM [activator, single point] | 
CCC(C(=O)Nc1cc(-c2cn3cccnc3n2)ccc1C)c1ccccc1 (configuration not stated) | inconclusive: 7.94 µM [activator, full curve] | 
CCOCCCn1c(SCC(=O)Nc2ccc(F)cc2)nc2c(sc3ccccc32)c1=O |  | inactive: 5.78%
Cc1[nH]nc2ncc(C(=O)c3cc(Cl)cc(Cl)c3O)cc12 | inconclusive: 3.16 µM [inhibitor, single point] | 
Cc1nc(C)n(CC(O)COc2ccc3cc(Br)ccc3c2)n1 (configuration not stated) | inconclusive: 39.8 µM [activator, single point] | 
CC(C)C(CC(=O)NCc1ccco1)c1ccco1 (configuration not stated) | inconclusive: 39.8 µM [activator, single point] | 
O=c1oc2ccccc2c2c1C(c1ccc(Cl)cc1)Nc1ccc3ccccc3c1-2 (configuration not stated) | active: 3.98 µM | 
Cc1nn(-c2ccc(F)cc2)c(-n2cccc2)c1C(=O)N1CCCCC1C (configuration not stated) | inconclusive: 39.8 µM [activator, single point] | 

— PubChem BioAssay AID1476 (National Center for Advancing Translational Sciences (NCATS), 2009)
